Assay results published in PubChem BioAssay AID652154 (Broad Institute, 2013).
About 4,200 (1.2%) of roughly 360,000 compounds were called active. The shares of active, inactive and inconclusive entries below differ from those in the screen.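 The calls were made as follows: active = mean replicate inhibition at least 60% with every replicate also reaching 60%; inconclusive = only one of the two criteria is met; inactive = mean below 60% and not all replicates reaching 60%.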

test: inhibitors of PAX8-driven TPO luciferase reporter, primary screen, RMG-I cells, single concentration (AID 652154); details: SteadyGlo, 24 h, at 12.6 µM, stronger effect = higher value;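 also: luciferase light reporting Pax8 driven TPO promoter activity; plate controls were median of neutral control wells for no effect and mitoxantrone controls for full effect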

Row | Structure (SMILES) | inhibition
1 | O=C(NCC(F)(F)F)c1ccc2sc([C@H]3C[C@H](O)[C@@H](CO)O3)nc2c1 | inconclusive: 65.8%
2 | COc1ccccc1NS(=O)(=O)c1ccc2oc(SCc3ccc(F)cc3)nc2c1 | inactive: 12.7%
3 | CCCNC(=O)N(C)C[C@H]1Oc2ncc(C#CCC(C)C)cc2C(=O)N([C@H](C)CO)C[C@@H]1C | inactive: 3.34%
4 | CN(C)Cc1cn(CC[C@H]2CC[C@H](NS(=O)(=O)c3ccc(-c4ccccc4)cc3)[C@@H](CO)O2)nn1 | inactive: -3.45%
5 | C[C@H]1CN([C@@H](C)CO)S(=O)(=O)c2ccc(-c3ccc(C#N)cc3)cc2O[C@@H]1CN(C)Cc1ccccn1 | inconclusive: 61.4%
6 | C[C@H]1CN([C@@H](C)CO)C(=O)Cc2cc(N(C)C)ccc2O[C@H]1CN(C)Cc1ccc(Cl)c(Cl)c1 | inactive: -14%
7 | COc1ccc([Si](C)(C)[C@H]2[C@H](CCn3cc(CCO)nn3)O[C@@]3(C(=O)N(Cc4cccc(N5CCOC5=O)c4)c4ccccc43)[C@@H]2C)cc1 | active: 83.4%
8 | COc1cccc(S(=O)(=O)N(C)C[C@@H]2Oc3cc(C4=CCCCC4)ccc3S(=O)(=O)N([C@@H](C)CO)C[C@@H]2C)c1 | inconclusive: 65%
9 | C[C@H]1CCCCO[C@@H](CN(C)C(=O)Nc2ccc(C(F)(F)F)cc2)[C@@H](C)CN([C@@H](C)CO)C(=O)c2cc(N(C)C)ccc2O1 | inconclusive: 60.8%
10 | O=S(=O)(c1cccs1)N1CCCCN2[C@@H](CO)[C@@H](c3ccc(/C=C/c4ccccc4)cc3)[C@@H]2C1 | inconclusive: 62.3%
11 | C=C1C(=O)O[C@H]2C[C@H]1[C@@H](OC(C)=O)C/C(C)=C/CC/C(C)=C\CC[C@]2(C)O | active: 111%
12 | c1ccc(-c2nn(-c3ccccc3)[n+](-c3ccccc3)n2)cc1 | active: 77%
13 | CCc1ccc(-c2csc(NC(=O)c3cccnc3)n2)cc1 | inactive: -17.2%
14 | CC(NCC(O)COCCC12CC3CC(CC(C3)C1)C2)c1ccccc1 (stereo not drawn) | inconclusive: 61.4%
15 | CC(=O)c1ccc2c(c1)CC1(C2)Cc2cc3c(cc2C1)C(=O)CC3 (stereo not drawn) | inconclusive: 61.1%
16 | O=C1C=CC(=O)N1c1ccccc1N1C(=O)C=CC1=O | inconclusive: 71.2%
17 | Cc1noc(C)c1S(=O)(=O)N(C)C[C@@H]1OCCCC[C@H](C)Oc2ccc(N(C)C)cc2C(=O)N([C@@H](C)CO)C[C@H]1C | inactive: 22.5%
18 | CC(=O)Cn1ncc(Br)c(Br)c1=O | active: 83.7%
19 | O=C(Nc1ccc(Cc2ccncc2)cc1)c1ccc([N+](=O)[O-])o1 | inconclusive: 69.9%
20 | N#Cc1cccc(-c2ccc3c(c2)[C@@H]2[C@@H](CCN2C(=O)C2CCCCC2)[C@@H](CO)N3)c1 | active: 75.1%
21 | C[C@H]1CN([C@@H](C)CO)C(=O)c2cc(NS(C)(=O)=O)ccc2O[C@H]1CN(C)C(=O)Nc1ccc(C(F)(F)F)cc1 | inconclusive: 60.2%
22 | Cc1ccc(NS(=O)(=O)c2cc([N+](=O)[O-])ccc2NNC(=S)Nc2cc(C)ccc2C)c(C)c1 | inconclusive: 60.6%

Row | Structure (SMILES) | inhibition
23 | C/C(CC1CC(COCC(C)C)OC1=O)=N\NC(N)=S (stereo not drawn) | inconclusive: 62.6%
24 | COc1ccc(NC(=O)N(C)C[C@H]2Oc3ccc(NC(=O)Nc4ccc(C(F)(F)F)cc4)cc3CC(=O)N([C@@H](C)CO)C[C@H]2C)cc1 | inconclusive: 63.2%
25 | C[C@@H]1CN([C@@H](C)CO)C(=O)Cc2cc(NS(=O)(=O)c3ccc(F)cc3)ccc2O[C@H]1CN(C)Cc1ccc(Cl)c(Cl)c1 | active: 93.3%
26 | COc1ccc(C#Cc2ccc([C@@H]3[C@H](CO)N4C(=O)CN(C(=O)c5ccccc5)C[C@@H]34)cc2)cc1 | inconclusive: 61.1%
27 | C[C@H](CO)N1C[C@H](C)[C@H](CN(C)S(=O)(=O)c2ccc(Cl)cc2)OCc2ccccc2-c2c(n(C)c3ccccc23)C1=O | inconclusive: 63.4%
28 | CCCCNC1=CC(=O)C(=O)c2ccccc21 | inconclusive: 60.6%
29 | COc1ccc(C)c2sc(N(CCCN(C)C)C(=O)c3ccc(S(=O)(=O)N4CCc5ccccc5C4)cc3)nc12 | inconclusive: 71.3%
30 | CCCN1[C@H](C(=O)N2CCOCC2)[C@@H](CO)[C@@H]2Cn3c(ccc(/C=C/c4ccccc4)c3=O)[C@@H]21 | active: 78.4%
31 | C[C@H](CO)N1C[C@H](C)[C@H](CN(C)C(=O)NC2CCCCC2)Oc2ccc(NC(=O)Nc3ccc(C(F)(F)F)cc3)cc2CC1=O | inactive: 4.77%
32 | O=C(Cc1ccccc1F)Nc1cccc2cccnc12 | inconclusive: 61.2%
33 | CCN1C(=O)N(CC)c2cccc3cccc1c23 | inactive: 8.57%
34 | C[C@@H]1CCCCO[C@H](CN(C)CC2CCCCC2)[C@H](C)CN([C@H](C)CO)C(=O)c2cc(NC(=O)Nc3ccccc3)ccc2O1 | inconclusive: 62.7%
35 | C[C@H](CO)N1C[C@H](C)[C@@H](CN(C)Cc2ccc(Oc3ccccc3)cc2)Oc2c(NC(=O)c3cnccn3)cccc2C1=O | inconclusive: 68.5%
36 | O=C(C1CC1)N1CC[C@@H]2[C@H](CO)Nc3ccc(C4=CCCCC4)cc3[C@@H]21 | inconclusive: 60.1%
37 | O=C(C[C@@H]1C[C@H]2c3cc(NC(=O)C4CCC4)ccc3O[C@H]2[C@H](CO)O1)NCc1ccc(-c2ccccc2)cc1 | inconclusive: 60.7%
38 | CN(C)C(=O)c1ccc(-c2ccc3c(c2)[C@H]2[C@H](CCN2C(=O)C2CCC2)[C@@H](CO)N3C)cc1 | inconclusive: 62.4%
39 | O=c1[nH]c(CN2CCN(c3ccc(O)cc3)CC2)nc2scc(-c3ccc(Cl)cc3)c12 | inconclusive: 60.1%
40 | Cn1cnc([N+](=O)[O-])c1S(=O)(=O)c1ccc(Cl)cc1 | inconclusive: 66.6%
41 | Cc1ccccc1-c1ccc([C@H]2[C@H](CO)N3CCCCN(S(=O)(=O)Cc4ccccc4)C[C@@H]23)cc1 | inconclusive: 64.7%
42 | Cc1ccc(N(CCC#N)C(=O)CCl)cc1C | inconclusive: 72.3%
43 | Cc1ccc(N2C(=O)c3cccc4c(N)ccc(c34)C2=O)c2cccnc12 | inconclusive: 61.8%
